Source: PubChem BioAssay AID360 (National Center for Advancing Translational Sciences (NCATS), 2006)
In all, about 48,000 compounds went through this assay and about 550 (1.1%) were called active. Not shown: some 4% with an inconclusive outcome. Rule as the data show it: active = potency below about 15 µM; inconclusive = mostly about 16 µM to 33 µM; inactive = weaker than that. Some of the results follow.

Target: Lysosomal acid glucosylceramidase (Homo sapiens) (UniProt P04062)
Assay: Glucocerebrosidase;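 also: the screen sought inhibitors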
Conditions: purified enzyme, resorufin glucoside fluorescence (screen aimed at inhibitors), 20 min
How it was run: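 Compounds titrated against 0.2 nM normal enzyme, 30 uM resorufin beta-D-glucopyranoside substrate, citrate/phosphate buffer with taurocholate and tween-20, pH 5.9. Reaction ran 20 min at room temperature; fluorescence (Ex 548/Em 600) gave AC50.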
Potency is read from the fitted curve at half-maximal effect.

UniProt P04062, sequence (P04062 whole entry, looked up): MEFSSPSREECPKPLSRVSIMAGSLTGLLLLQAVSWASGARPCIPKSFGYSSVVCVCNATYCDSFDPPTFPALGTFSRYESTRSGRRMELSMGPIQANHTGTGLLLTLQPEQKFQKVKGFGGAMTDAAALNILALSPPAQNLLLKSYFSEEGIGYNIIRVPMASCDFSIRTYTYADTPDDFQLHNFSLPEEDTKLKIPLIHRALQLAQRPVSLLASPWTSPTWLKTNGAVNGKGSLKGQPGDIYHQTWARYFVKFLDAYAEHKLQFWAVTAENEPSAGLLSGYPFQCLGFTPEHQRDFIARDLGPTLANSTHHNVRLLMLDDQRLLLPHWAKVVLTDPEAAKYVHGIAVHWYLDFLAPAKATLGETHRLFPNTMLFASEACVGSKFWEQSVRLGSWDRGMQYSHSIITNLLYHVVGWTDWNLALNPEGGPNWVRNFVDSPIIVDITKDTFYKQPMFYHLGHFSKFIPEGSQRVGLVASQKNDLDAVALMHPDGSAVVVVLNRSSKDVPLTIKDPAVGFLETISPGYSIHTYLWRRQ

Potency, inactive:
Cc1cccc2cc(CN(Cc3nnnn3Cc3ccccc3)C3CCCC3)c(=O)[nH]c12 > 76.9 µM
COC(=O)CSc1nnc(-c2cnccn2)n1C > 76.9 µM
CCOC(=O)C1CCN(C(=O)c2oc3ccc(S(=O)(=O)N4CCCCCC4)cc3c2C)CC1 > 76.9 µM
CCOC(=O)C1=C(C)NC(=O)C(C(N)=O)C1c1ccccc1 (stereo unspecified) > 76.9 µM
CCCNc1nc2c(c(=O)n(C)c(=O)n2C)n1CCc1ccccc1 > 76.9 µM
COc1ccc2c(c1OC)C(=O)N1c3ccccc3COC21 (stereo unspecified) > 76.9 µM
CC(/C(O)=C(\C#N)c1nc2ccccc2n1C)N1C(=O)c2ccccc2C1=O (stereo unspecified) > 76.9 µM
Cc1nc2ccccc2c(=O)n1/N=C/c1cn(-c2ccccc2)nc1-c1cccs1 > 76.9 µM
Cn1c(CCN2CCCCC2)nc2cc(NC(=O)NC3CCCCC3)ccc21 > 76.9 µM
CCn1c(SCC(=O)Nc2cc(C)on2)nnc1-c1ccncc1 > 76.9 µM
Cc1cc2c(cc1C)N(CC(=O)N1CCCC1)C(=O)CC(c1ccccc1)=N2 > 76.9 µM
Cc1[nH]nc2c1C(c1ccc3c(c1)OCO3)C(C#N)=C(N)O2 (stereo unspecified) > 76.9 µM
CCc1nnc2sc(-c3ccc(NC(=O)c4ccco4)cc3)nn12 > 76.9 µM
O=C(CSc1ncn[nH]1)Nc1ccc(Cl)c(Cl)c1 > 76.9 µM
CC(C)c1c(C#N)c(N)nc(SCC(=O)c2cc3ccccc3oc2=O)c1C#N > 76.9 µM
Cn1c(C(O)c2ccccc2F)nc(Cl)c1Cl (stereo unspecified) > 76.9 µM
CC1(C)Cc2c(sc3c2c(=N)n(Cc2ccco2)c(=O)n3Cc2ccccc2)CO1 > 76.9 µM
Cc1ccccc1-c1nnc(SCC(=O)Nc2cccc(C)c2C)o1 > 76.9 µM
O=C(c1cc2nc(C3CC3)cc(C(F)(F)F)n2n1)N1CCCC1 > 76.9 µM
FC(F)(F)c1cc(-c2ccco2)nc(N2CCOCC2)n1
Cc1nnc(NC2(C(F)(F)F)C(=O)Nc3c2c(=O)n(C)c(=O)n3C)s1 (stereo unspecified) > 76.9 µM
NC(=O)c1ccc(-c2ncc(-c3ccccc3)o2)cc1 > 76.9 µM
CCc1ccc(N2CC(C(=O)Nc3nccs3)CC2=O)cc1 (stereo unspecified) > 76.9 µM
COC(=O)[C@@H](NC(=O)N1CCN(c2cccc(C(F)(F)F)c2)CC1)C(C)C > 76.9 µM
Cc1ccc(CSc2nnc(-c3ccco3)n2N)cc1 > 76.9 µM
Cc1ccc(CN(Cc2cc3cccc(C)c3[nH]c2=O)C(=O)N(C)C)cc1 > 76.9 µM
Cc1cc(NS(=O)(=O)c2ccc(Cl)cc2)nn1CC(=O)NCc1ccco1 > 76.9 µM
C=CCn1c(COc2ccccc2F)nnc1SCC(=O)N1CC(=O)Nc2ccccc21 > 76.9 µM
O=C1CC(Nc2ccc(N3CCOCC3)cc2)C(=O)N1Cc1ccccc1 (stereo unspecified) > 76.9 µM
Cc1ccc(NC2=NCC(=O)N2Cc2ccc3c(c2)OCO3)c(C)c1 > 76.9 µM
Cc1ccccc1OCCCC(=O)Nc1nccs1 > 76.9 µM
COCCNC(=O)C(c1ccc(O)cc1)N(Cc1ccco1)C(=O)CCC(=O)Nc1nccs1 (stereo unspecified) > 76.9 µM
Cc1ccc2c(c1)N(CCC(=O)NC1CC1)C(=O)C(C)O2 (stereo unspecified) > 76.9 µM
COc1cc(Sc2ccc(C)cc2)c(OC)cc1N > 76.9 µM
COc1cccc(C(=O)N2CCN(CCCc3ccccc3)CC2)c1OC > 76.9 µM
Cc1ccc(N)c(C(=O)CCCCC(=O)O)c1 > 76.9 µM
Cn1c(=O)c2cc(NCc3ccccc3)nnc2n(C)c1=O > 76.9 µM
CCCCNC(=O)CC1C(=O)N(Cc2ccccc2)C(C)c2nc3ccccc3n21 (stereo unspecified) > 76.9 µM
COc1ccccc1C1C=C(c2ccc(Cl)cc2)Nc2nc(NS(C)(=O)=O)nn21 (stereo unspecified) > 76.9 µM
Cc1cc(N2CCOCC2)c2c(N)c(C)cc(C)c2n1 > 76.9 µM
O=C(NCC1COc2ccccc2O1)C1CCCN(S(=O)(=O)c2cccc3nsnc23)C1 (stereo unspecified) > 76.9 µM
COc1cccc(Nc2nc(=O)[nH]nc2C)c1 > 76.9 µM
O=C(COc1ccc(F)cc1)NCC1CCCO1 (stereo unspecified) > 76.9 µM
CCC(C)(C(=O)NC1CCCC1)N(C(=O)CNC(C)=O)c1ccccc1 (stereo unspecified) > 76.9 µM
Cc1cc(C)nc(-n2nc(C)cc2NC(=O)c2cccc(S(=O)(=O)N(C)C)c2)n1 > 76.9 µM
CC(=O)Nc1ccc2c(c1)nc(CCNC(=O)c1ccccc1)n2C > 76.9 µM
Cc1cc(C)c(S(=O)(=O)Nc2cccnc2)c(C)c1 > 76.9 µM
Cn1c(=O)c2c(ncn2CC(=O)N2CCN(c3ccc(F)cc3)CC2)n(C)c1=O > 76.9 µM
Cc1nc(SCC(=O)Nc2ccc(C)c(F)c2)c2oc3ccccc3c2n1 > 76.9 µM
COc1ccc2c3c(c(=O)oc2c1OCC(N)=O)CCCC3 > 76.9 µM
CCOC(=O)c1c(/N=C/N(C)C)sc(C(=O)OC)c1C > 76.9 µM
CC(C)(C)NC(=O)COC(=O)c1snc(C(=O)NC2CCCCC2)c1N > 76.9 µM
COc1c(O)cccc1-c1nnn(CCC(=O)OCC(=O)c2ccccc2)n1 > 76.9 µM
COc1ccc2cc(CCNC(=O)C3CC3)c(=O)[nH]c2c1 > 76.9 µM
COc1cc(CNc2ccc(N3CCOCC3)c(C(=O)O)c2)ccc1OCC(N)=O > 76.9 µM
O=C(Cn1cnc2c(nnn2Cc2ccc(F)cc2)c1=O)NCc1ccco1 > 76.9 µM
CC(C)OCCCNC(=O)c1ccc(N(C)S(C)(=O)=O)cc1 > 76.9 µM
O=C(NC1CCCCC1)C(c1ccc(Cl)cc1)N(C(=O)c1cnccn1)c1ccc2c(c1)OCO2 (stereo unspecified) > 76.9 µM
Cn1nnc2cc(C(=O)NC(C)(C)C)ccc21 > 76.9 µM
O=C(NCCCN1CCOCC1)c1cc2ccccc2oc1=O > 76.9 µM
Cc1ccc2c(c1)c(C)c(C)n2CC(O)Cn1nc(C)cc1C (stereo unspecified) > 76.9 µM
O=S(=O)(c1ccc(N2CC=C(c3ccccc3)CC2)nc1)N1CCCC1 > 76.9 µM
Cc1cc2ccc(C)c(C)c2nc1SCC#N > 76.9 µM
CCN1C(=O)N(C)C(N(O)C(=O)NC)C1(C)C (stereo unspecified) > 76.9 µM
COc1ccc(OCC(=O)c2c(O)c3ccccc3oc2=O)cc1 > 76.9 µM
COc1ccc(CCn2c(SCC(=O)Nc3cc(C)on3)nc3ccccc3c2=O)cc1OC > 76.9 µM
COc1ccc(S(=O)(=O)N2CCC(C(=O)NCc3ccccn3)CC2)cc1Cl > 76.9 µM
CC(C)CNC(=O)C1CC(=O)OC12CCCCC2 (stereo unspecified) > 76.9 µM
COc1ccccc1CNC(=O)CCCN1C(=O)COc2ccc(C)cc21 > 76.9 µM
Cc1cccc(N2C(=O)CC(N(O)c3ccccc3)C2=O)c1 (stereo unspecified) > 76.9 µM
COc1ccc(OC)c(N2C(=O)[C@@H]3C(c4ccccc4Cl)=NO[C@@H]3C2=O)c1 > 76.9 µM
CC1(C)CC(=O)c2cc(OCC(=O)NCc3cccnc3)ccc2O1 > 76.9 µM
CC(=O)c1cc(C(=O)Nc2ccccc2C(=O)O)oc1C > 76.9 µM
O=C(Nc1ccc(Cl)c(Cl)c1)N(Cc1cccnc1)Cc1ccco1 > 76.9 µM
Cc1ccc(-c2nc3c(=O)n(C)c4ccccc4c3o2)cc1 > 76.9 µM
COC(=O)c1ccccc1NC(=O)C12CCC(C)(C(=O)O1)C2(C)C (stereo unspecified) > 76.9 µM
COc1ccccc1OCC(=O)Nc1ccc(O)cc1C(=O)O > 76.9 µM
Cc1nnc(-n2cnc3ccccc32)c2ccccc12 > 76.9 µM
Cc1cc(C(=O)CSc2nnnn2-c2ccc(Cl)cc2)c(C)n1CC1CCCO1 (stereo unspecified) > 76.9 µM
CCOC(=O)c1ccc(NC(=O)Nc2ccn(C)n2)cc1 > 76.9 µM
O=C(CN1CCN(CCOCCO)CC1)N1c2ccccc2Sc2ccc(Cl)cc21 > 76.9 µM
Cc1nnc(SCC(=O)Nc2ccccc2N2CCOCC2)s1 > 76.9 µM
COc1ccccc1CN1CC(C(=O)NC2CCCCC2)CC1=O (stereo unspecified) > 76.9 µM
Cc1cc(C(=O)CSc2nnc(-c3cccnc3)n2-c2ccccc2F)c(C)n1C > 76.9 µM
Cc1ccc2nc(C)cc(OCC(=O)O)c2c1 > 76.9 µM
O=C(NC1CCS(=O)(=O)C1)c1cnccn1 (stereo unspecified) > 76.9 µM
Cc1cc(C)nc(N2CCC(C(=O)Nc3cccc(C(F)(F)F)c3)CC2)n1 > 76.9 µM
Cc1nnc(SCC(=O)NCc2ccc3c(c2)OCO3)s1 > 76.9 µM
O=C(Cn1nnc(-c2cccc(C(F)(F)F)c2)n1)NC(=O)NCc1ccco1
CCn1cc(C(=O)Nc2ccc(C(=O)N3CCCC3)cc2)c(=O)c2ccc(C)nc21 > 76.9 µM
Cc1ccc(C(=O)N2c3ccc(F)cc3CCC2C)o1 (stereo unspecified) > 76.9 µM
